Experimental data reported in PubChem BioAssay AID760 (NMMLSC, 2007).
Hit rate of the full screen: of about 190,000 compounds, about 360 (0.19%) were called active. This list was built around the results that the source calls inconclusive (neither active nor inactive); the mix of calls is not that of the screen.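 Rule for the calls: active = GTP binding activity at least 20 points away from 100%, either lowered or raised; inconclusive = signal likely due to the compound's own green fluorescence; inactive = the rest.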

Molecular target: Ras-related protein Rab-2A (Canis lupus familiaris) (UniProt P61105)
Test: Rab2 wt fluorescent GTP binding changes, either direction – biochemical, dog, bead-based flow cytometry, multiplex, primary screen (AID 760);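 note: 0% = beads with excess unlabeled GTP and 100% = no-compound control corrected for plate trend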
Settings: GST-Rab2 wt beads, Bodipy-GTP binding, at 10 µM

GTP binding activity, inactive:
CCC(=O)N1CCc2cc(Br)cc(S(=O)(=O)N(C)c3ccc(OC)cc3OC)c21 95%
Cn1cnnc1SCC(=O)c1c(N)n(Cc2ccccc2)c(=O)n(C)c1=O 98%
O=C(NNC(=O)C1CC(c2cccnc2)=NO1)Nc1ccccc1F (centres undefined) 98%
C=C(C)COc1ccc(-c2n[nH]c(C)c2-c2ccc(Br)cc2)c(O)c1 94%
CCc1ccc(OCCOCC(O)CNC2CCCC2)cc1 (centres undefined) 100%
CCCn1nc([N+](=O)[O-])c(C(C#N)c2nc3ccccc3o2)c(Cl)c1=O (centres undefined) 95%
Cc1cc(C)cc(NC(=O)c2c(C)nc3ccccn23)c1 99%
O=C(COCC(=O)N1CCOCC1)N1CCOCC1 97%
OCCC1CN(Cc2cnc(-c3cccc4ccccc34)nc2)CCN1C1CCCCC1 (centres undefined) 97%
Cc1ccc(CN2CCN(Cc3cn[nH]c3C3CCCCC3)CC2CCO)cc1 (centres undefined) 95%
CC(C)CC(=O)Nc1cccc(NC(=O)CC(C)C)n1 100%
Cn1c(=O)[nH]c(=O)c2c1nc(Br)n2CC(O)COc1ccc(Cl)cc1 (centres undefined) 100%
Cc1cc(NC(=O)Cn2nc([N+](=O)[O-])c(Br)c2C)no1 101%
O=C(Nc1cccc([N+](=O)[O-])c1)Nc1ccc2c(c1)OCCO2 96%
O=C1CC(C(=O)NC2CCCCC2)C2(CCCCC2)O1 (centres undefined) 94%
CC(=O)Cn1nnc2sc(-c3ccccc3)cc2c1=O 101%
CC(=O)Nc1ccc(/C=C/c2ccc3c([N+](=O)[O-])cccc3n2)cc1 94%
CC(=O)NC1C(Oc2ccc3c(C)cc(=O)oc3c2)OC(COC(C)=O)C(OC(C)=O)C1OC(C)=O (centres undefined) 100%
NC(=O)COC(=O)CSc1ccc2ccccc2c1 97%
O=C(O)CCC(=O)N1c2ccccc2NC2=C(C(=O)CC(c3ccc(F)cc3)C2)C1c1ccc([N+](=O)[O-])o1 (centres undefined) 97%
Cc1nn(C)c(C)c1Nc1ccc(N2C(=O)C3C4C=CC(C4)C3C2=O)cc1[N+](=O)[O-] (centres undefined) 92%

GTP binding activity, active:
Clc1ccc(Cn2ncc3c(N4CCOCC4)ncnc32)cc1 59%
O=c1[nH]c2sc3c(c2c2nncn12)CCCC3 77%
CC(=O)Nc1ccc(/C=N/NC(=O)CCN2CCN(c3ccccc3)CC2)cc1 75%
Cc1cc(C)n2nc(SCCOc3ccccc3F)nc2n1 71%
O=C(Nc1cccc(Cl)c1)Nc1ccnc(-c2cccnc2)n1 67%

GTP binding activity, inconclusive:
Fc1ccccc1NC(=S)N1CCN(Cc2ccccc2)CC1 103%
O=C(Nc1cccc(F)c1)NC1CC2CCCC(C1)N2C1CC1 (centres undefined) 103%
Cc1[nH]n(-c2ccc([N+](=O)[O-])cc2)c(=O)c1C=NCCN1CCN(C(=O)c2cccc(F)c2)CC1 107%
C/C(=N\N=C1\NC(=O)C(CC(=O)Nc2ccc(Cl)cc2)S1)c1ccco1 (centres undefined) 86%
COc1cnc(-c2ccccn2)nc1Sc1ccc(Cl)cc1 105%
O=C(CO/N=C1\CCCc2nonc21)Nc1ccc(Br)cc1 93%
CCOC(=O)c1cc2sc(C)cc2n1CC(=O)Nc1ccc2c(c1)OCCO2 95%
COc1ccccc1N1CCN(C(c2ccccc2Cl)c2nnnn2C(C)(C)C)CC1 (centres undefined) 88%
CCOC(=O)CCc1c(C)nc(SCC(=O)O)c(C#N)c1C 103%
N#Cc1c(N)oc(-c2ccco2)c1-c1ccco1 90%
COc1ccc(N2CCN(Cc3ccc(Br)s3)CC2)cc1 102%
COc1ccc(-c2nnc(SCC(=O)N3CCCC(C)C3)o2)c(OC)c1 (centres undefined) 103%
O=C(COC(=O)c1cccs1)NC1CCCCC1 108%
Cn1nc(C(F)(F)F)c(C(=O)Nc2cccc(Cl)c2)c1Cl 97%
O=C(CSc1ncc(-c2ccc(F)cc2)n1Cc1ccco1)Nc1ccc2c(c1)OCO2 86%
C=C(C)Cn1c(-c2ccncc2)n[nH]c1=S 90%
CCOC(=O)c1c[nH]c2nc(C)ccc2c1=O 94%
COc1ccc(-c2ncncc2-c2csc(C)n2)c(O)c1OC 103%
COC(=O)Cc1csc(NC(=O)CSc2nnc3ccccn23)n1 93%
COc1cccc(-n2c(SCC(=O)NC3CCCCC3)nc3n[nH]c(C)c3c2=N)c1 84%
N#Cc1c(OCC(=O)c2ccccc2)nc2c(c1-c1ccco1)CCc1ccccc1-2 104%
Cc1cc(C)cc(N(C(=O)CCC(=O)Nc2cc(C)on2)C(C(=O)NC2CCCC2)c2ccco2)c1 (centres undefined) 94%
CCc1ccc2[nH]c3nc(SCc4nnc(-c5ccc(C)cc5)o4)nnc3c2c1 101%
CC(=O)CSc1nnc(-c2ccncc2)n1C 106%
COc1ccc(N2CCN(C(=O)c3ccc4c(=O)n(CC5CCCO5)c(=O)[nH]c4c3)CC2)cc1 (centres undefined) 101%
CCN(CC)CC(=O)Nc1ccc2c(c1)Nc1ccccc1CC2 102%
Cc1cc(C)nc(SCC(=O)c2c(N)n(C)c(=O)n(C)c2=O)n1 97%
COc1ccc(C(=O)NC(=S)NNC(=O)CNC(=O)C2CCCCC2)cc1 90%
Cn1cc([C@@H]2C[C@H]3CN(Cc4cccc(Cl)c4)C(=O)[C@]34CCCN24)c2ccccc21 122%
Nc1c(C(=O)NC2CC2)sc2nc3c(c(-c4ccco4)c12)CC/C3=C/c1ccco1 88%
O=C1C=C(N(CCO)Cc2ccccc2)c2ccccc2C1=O 93%
NC(=O)c1sc(=S)n2c1[nH]c(=O)c1sccc12 86%
COc1ccc(/C=N/NC(=O)c2ccc(COc3cccc4cccnc34)cc2)cc1OC 90%
